Experimental data: the antibiotic and cytotoxicity screens of Wong et al. (2023)
This is one part of the list.

Test system: HSkMC (human skeletal muscle cells)
Test: cytotoxicity call (relative viability < 0.9)
Details: 10 µM

| Structure (SMILES) | cytotoxicity call |
| --- | --- |
| C[C@@H]1CN([C@H](C)CO)C(=O)c2cc(NC(=O)C3CCCCC3)ccc2O[C@@H]1CN(C)Cc1ccc(Oc2ccccc2)cc1 | inactive |
| CN(CC(=O)Nc1ccccc1)S(C)(=O)=O | inactive |
| O=c1c(O[C@@H]2O[C@H](CO)[C@@H](O)[C@H](O)[C@@H]2O[C@H]2OC[C@](O)(CO)[C@H]2O)c(-c2ccc(O)c(O)c2)oc2cc(O)cc(O)c12 | inactive |
| COc1ccc(CNC(=O)C[C@@H]2C[C@@H]3c4cc(NS(=O)(=O)c5ccc(F)cc5)ccc4O[C@@H]3[C@@H](CO)O2)cc1 | inactive |
| O=C(C=Cc1ccc(O)cc1)c1ccc(O)cc1O | inactive |
| COc1cccc(NC(=O)N2C[C@@H](O)COC[C@H]3O[C@@H](CC(=O)NCCCN4CCOCC4)CC[C@@H]32)c1 | inactive |
| COc1ccc(S(=O)(=O)N(C)C[C@H]2Oc3ccc(NS(=O)(=O)c4ccccc4)cc3C(=O)N([C@@H](C)CO)C[C@@H]2C)cc1 | inactive |
| C[C@@H]1CN([C@@H](C)CO)C(=O)c2cc(NC(=O)Nc3ccc(C(F)(F)F)cc3)ccc2O[C@H]1CN(C)Cc1ccc(Cl)c(Cl)c1 | inactive |
| C[C@H](CO)N1C[C@H](C)[C@@H](CN(C)C(=O)Nc2cccc3ccccc23)OCCCC[C@H](C)Oc2ccc(NS(=O)(=O)c3cn(C)cn3)cc2C1=O | inactive |
| C[C@H]1CN([C@@H](C)CO)C(=O)Cc2cc(NC(=O)Nc3cccc4ccccc34)ccc2O[C@@H]1CN(C)Cc1ccc(Cl)c(Cl)c1 | inactive |
| C[C@H]1CN([C@@H](C)CO)C(=O)Cc2cc(NC(=O)Nc3cccc4ccccc34)ccc2O[C@H]1CN(C)Cc1ccncc1 | inactive |

Test system: HepG2
Test: cytotoxicity call (relative viability < 0.9)
Details: 10 µM

| Structure (SMILES) | cytotoxicity call |
| --- | --- |
| C[C@@H]1CN([C@H](C)CO)C(=O)CCCn2nncc2CO[C@@H]1CN(C)C(=O)Nc1ccc2c(c1)OCO2 | inactive |
| NCc1nc2c([nH]1)CCCC2 | inactive |
| C[C@@H]1CCCCO[C@@H](CN(C)S(C)(=O)=O)[C@@H](C)CN([C@@H](C)CO)C(=O)c2cc(NS(=O)(=O)c3ccc(F)cc3)ccc2O1 | inactive |
| COc1ccc(S(=O)(=O)N(C)C[C@H]2Oc3ncc(C#CC4(O)CCCC4)cc3C(=O)N([C@H](C)CO)C[C@H]2C)cc1 | inactive |
| CN1CCN(C(=O)C[C@@H]2CC[C@H]3[C@@H](COC[C@@H](O)CN3C(=O)Nc3ccc4c(c3)OCO4)O2)CC1 | inactive |
| C[C@@H]1CN([C@H](C)CO)C(=O)c2cc(NS(C)(=O)=O)ccc2O[C@H]1CN(C)S(=O)(=O)c1ccc(F)cc1 | inactive |
| C[C@H]1CN([C@@H](C)CO)C(=O)c2cccc(NC(=O)Nc3ccc(C(F)(F)F)cc3)c2O[C@H]1CN(C)S(C)(=O)=O | inactive |
| COc1ccc(NC(=O)N(C)C[C@H]2Oc3c(NS(=O)(=O)c4c(C)noc4C)cccc3C(=O)N([C@H](C)CO)C[C@H]2C)cc1 | inactive |
| COC(=O)C1=CO[C@@H](O[C@H]2O[C@@H](CO)[C@@H](O)[C@@H](O)[C@@H]2O)[C@@H]2C(CO)=C[C@H](O)[C@H]12 | inactive |
| C[C@H]1CCCCO[C@@H](CN(C)C(=O)CCC(F)(F)F)[C@@H](C)CN([C@@H](C)CO)C(=O)c2cc(NS(=O)(=O)c3ccc(F)cc3)ccc2O1 | inactive |
| C[C@H](CO)N1C[C@H](C)[C@@H](CN(C)C(=O)Nc2cccc3ccccc23)Oc2ccc(NC(=O)Cc3cn(C)c4ccccc34)cc2C1=O | inactive |
| O=C(Nc1cccc2cccnc12)[C@@H]1[C@H](c2ccc(C(F)(F)F)cc2)CC(=O)N1C(=O)OCc1ccccc1 | inactive |
| CCO[C@H]1OC(C(=O)N2CCN(Cc3ccccc3)CC2)=C[C@@H](C)[C@@H]1CCCOC(=O)NCCCCCC(=O)NO | inactive |
| COCC(=O)N1CC[C@]2(CC1)CN([C@@H](CO)c1c2c2ccc(cc2n1C)OC)C(=O)Cc1ccccc1 | inactive |
| COCCOC(=O)N1C(=O)[C@@]2(c3cc(C#Cc4ccc(OC)cc4)ccc31)[C@H](C(=O)N1CCN(c3ncccn3)CC1)[C@H]1C(=O)O[C@H](c3ccccc3)[C@H](c3ccccc3)N1[C@@H]2c1ccc(OCCO)cc1 | inactive |
| C[C@H](CO)N1C[C@H](C)[C@@H](CN(C)Cc2ccc(C(F)(F)F)cc2)OCCCC[C@H](C)Oc2ccc(NC(=O)Nc3ccc4c(c3)OCO4)cc2C1=O | inactive |
| C[C@@H]1COC(=O)[C@H](CC(=O)OC(C)(C)C)CC=CC[C@@H](CC(=O)N[C@@H](CO)Cc2ccccc2)C(=O)N1 | inactive |
| O=C(C[C@H]1CC[C@H]2[C@@H](COC[C@@H](O)CN2S(=O)(=O)c2ccccc2)O1)N[C@H]1CCN(Cc2ccccc2)C1 | inactive |
| COc1ccc2c3c(n(c2c1)C)[C@H](CO)N(C[C@]13CCN(CC1)C(=O)CN(C)C)S(=O)(=O)C | inactive |
| COc1ccccc1C#Cc1ccc2c(c1)O[C@@H](CN(C)C(C)=O)[C@H](C)CN([C@H](C)CO)S2(=O)=O | inactive |

| Structure (SMILES) | cytotoxicity call |
| --- | --- |
| CCOC(=O)c1ccc(NC(=S)N[C@@H](NC(=O)c2ccc(Br)cc2)C(Cl)(Cl)Cl)cc1 | inactive |
| COc1ccc(S(=O)(=O)N2C[C@@H](O)COC[C@@H]3O[C@H](CC(=O)N[C@@H]4CCN(Cc5ccccc5)C4)CC[C@H]32)cc1 | inactive |
| CC1(C)SC2C(N3C(=O)C(c4ccccc4)NC3(C)C)C(=O)N2C1C(=O)[O-].[K+] (stereo not given) | inactive |
| C[C@H](CO)N1C[C@H](C)[C@H](CN(C)C(=O)Nc2ccc(F)cc2)OCCCC[C@H](C)Oc2ccc(NC(=O)C3CCOCC3)cc2C1=O | inactive |
| C=CC[C@H](CC(=O)NCCO)C(=O)N[C@H](COC(=O)[C@H](CC=C)CC(=O)OC(C)(C)C)c1ccccc1 | inactive |
| C[C@H](CO)N1C[C@H](C)[C@@H](CN(C)Cc2ccc(C(=O)O)cc2)Oc2ccc(NC(=O)C3CC3)cc2C1=O | inactive |
| Cc1noc(C)c1S(=O)(=O)Nc1cccc2c1O[C@H](CN(C)C(=O)NC(C)C)[C@H](C)CN([C@@H](C)CO)C2=O | inactive |
| C[C@H]1CN([C@@H](C)CO)C(=O)c2cccc(NS(=O)(=O)c3cccs3)c2O[C@@H]1CN(C)Cc1ccc(Cl)c(Cl)c1 | inactive |
| C[C@@H]1CN([C@H](C)CO)C(=O)c2cc(NC(=O)C3CCCCC3)ccc2O[C@@H]1CN(C)Cc1ccc(Oc2ccccc2)cc1 | active |
| CN(CC(=O)Nc1ccccc1)S(C)(=O)=O | inactive |
| O=c1c(O[C@@H]2O[C@H](CO)[C@@H](O)[C@H](O)[C@@H]2O[C@H]2OC[C@](O)(CO)[C@H]2O)c(-c2ccc(O)c(O)c2)oc2cc(O)cc(O)c12 | inactive |
| COc1ccc(CNC(=O)C[C@@H]2C[C@@H]3c4cc(NS(=O)(=O)c5ccc(F)cc5)ccc4O[C@@H]3[C@@H](CO)O2)cc1 | inactive |
| O=C(C=Cc1ccc(O)cc1)c1ccc(O)cc1O | inactive |
| COc1cccc(NC(=O)N2C[C@@H](O)COC[C@H]3O[C@@H](CC(=O)NCCCN4CCOCC4)CC[C@@H]32)c1 | inactive |
| COc1ccc(S(=O)(=O)N(C)C[C@H]2Oc3ccc(NS(=O)(=O)c4ccccc4)cc3C(=O)N([C@@H](C)CO)C[C@@H]2C)cc1 | inactive |
| C[C@@H]1CN([C@@H](C)CO)C(=O)c2cc(NC(=O)Nc3ccc(C(F)(F)F)cc3)ccc2O[C@H]1CN(C)Cc1ccc(Cl)c(Cl)c1 | inactive |
| C[C@H](CO)N1C[C@H](C)[C@@H](CN(C)C(=O)Nc2cccc3ccccc23)OCCCC[C@H](C)Oc2ccc(NS(=O)(=O)c3cn(C)cn3)cc2C1=O | inactive |
| C[C@H]1CN([C@@H](C)CO)C(=O)Cc2cc(NC(=O)Nc3cccc4ccccc34)ccc2O[C@@H]1CN(C)Cc1ccc(Cl)c(Cl)c1 | inactive |
| C[C@H]1CN([C@@H](C)CO)C(=O)Cc2cc(NC(=O)Nc3cccc4ccccc34)ccc2O[C@H]1CN(C)Cc1ccncc1 | inactive |
